According to PubChem BioAssay AID1240 (Sanford-Burnham Center for Chemical Genomics, 2008):
In all, about 50,000 compounds went through this assay and about 800 (1.6%) showed an effect of 50% or more. The list shows a part of the results.

target: Bcl-2-like protein 10 (Homo sapiens) (UniProt Q9HD36); test: Phenotype converters, Bcl-B/TR3 peptide binding displacement, primary biochemical FP (AID 1240); conditions: GST-Bcl-B / FITC-TR3 peptide fluorescence polarization; stronger effect = higher value; compound at 3.75 mg/L;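 note: 0% = Bcl-B with tracer peptide and DMSO and 100% = tracer peptide lacking Bcl-B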
UniProt Q9HD36, sequence (Q9HD36 whole entry, looked up): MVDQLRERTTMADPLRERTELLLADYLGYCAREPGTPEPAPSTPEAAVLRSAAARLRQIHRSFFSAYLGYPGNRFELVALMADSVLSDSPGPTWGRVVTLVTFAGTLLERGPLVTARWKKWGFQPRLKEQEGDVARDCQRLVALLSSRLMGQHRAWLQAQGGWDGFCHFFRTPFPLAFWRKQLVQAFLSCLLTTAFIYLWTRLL

Row | Compound | displacement [%]
1 | Cc1ccc(-n2[nH]c(C)c(C=Nc3ccc(N(C)C)cc3)c2=O)cc1C | -4.3
2 | NC(=O)C1CCN(C(=O)c2ccccc2F)CC1 | 12.8
3 | O=C1NN(c2cccc(Cl)c2)C(=O)/C1=C/c1ccc2c(c1)OCO2 | 3.3
4 | O=[N+]([O-])c1cc(N[C@@H]2O[C@H](CO)[C@@H](O)[C@H](O)[C@@H]2O)ccc1Cl | 5.2
5 | Cc1cc(N2C(=O)NC(=O)/C(=C/c3cc4c(cc3[N+](=O)[O-])OCO4)C2=O)ccc1Br | 31.3
6 | CCOC(=O)c1c(C)nc2sccn12 | 4.6
7 | CCNc1nc(NC(C)C)nc(Oc2ccc(C(=O)OC)cc2)n1 | 5.9
8 | O=C1/C(=C\c2ccc3c(c2)OCO3)SC(=S)N1c1cccc(C(F)(F)F)c1 | 12.3
9 | COC(=O)c1c(C)oc2cc(Br)c(OS(C)(=O)=O)cc12 | 9.4
10 | CCc1ccc(OCCNc2cc(N3CCCC3)ccc2[N+](=O)[O-])cc1 | 5
11 | O=C1C(=O)N(c2cccc([N+](=O)[O-])c2)C(c2ccc3c(c2)OCO3)/C1=C(/O)c1ccccc1 (stereo unspecified) | -8.4
12 | CC(C)N(C(=O)c1ccc(-c2nc3ccccc3s2)cc1)C(C)C | 7.6
13 | Cc1ccc(NC(=O)c2ccco2)c([N+](=O)[O-])c1 | -2.4
14 | CCOc1ccc(N2C(=O)NC(=O)/C(=C/c3ccc(-c4cccc(C(=O)O)c4)o3)C2=O)cc1 | -13.6
15 | c1cc(-c2nnc(-c3ccco3)o2)cc(-c2nnc(-c3ccco3)o2)c1 | 15.8
16 | O=C1C2C3C=CC(C3)C2C(=O)N1c1cc(Cl)ccn1 (stereo unspecified) | 4
17 | O=C(O)c1ncc(-c2ccccc2)cn1 | 7.9
18 | COc1ccc(C(=O)/C=C\NCC(=O)c2ccccc2)c(OC)c1 | 2.5
19 | O=C(O)CSCc1cccc(Br)c1 | -1.7
20 | O=[N+]([O-])c1ccc2nc(N3CCOCC3)sc2c1 | -22.8
21 | O=C(COc1ccc(Cl)cc1Br)NCc1ccco1 | -2.4
22 | Cc1ccccc1C(=O)N/N=C/c1ccc(OCC(=O)N2CCCCC2)cc1 | -5.7

Row | Compound | displacement [%]
23 | COc1ccc(/C=N/Nc2cc(-c3ccccc3)nc(C)n2)cc1 | -9.7
24 | COc1ccc(N(CC(=O)NCc2ccccn2)S(=O)(=O)c2ccccc2[N+](=O)[O-])c(OC)c1 | 13.6
25 | O=[N+]([O-])c1cccc(S(=O)(=O)N2CCOCC2)c1 | 15.9
26 | CC12C=CC(C)(O1)C1C(=O)N(c3ccc(Br)cc3)C(=O)C12 (stereo unspecified) | -6.1
27 | O=C(CCCC(=O)OCC(F)(F)C(F)F)Nc1ccc(I)cc1 | 16.7
28 | O=C1C(=O)N(c2cccc(Cl)c2)C(c2ccccc2[N+](=O)[O-])/C1=C(\O)c1ccccc1 (stereo unspecified) | 0.4
29 | O=C(O)C1C2CCC(C2)C1C(=O)Nc1nc2ccc(F)cc2s1 (stereo unspecified) | -8.2
30 | O=C(Nc1ccc(-c2nc3ccccc3o2)c(O)c1)c1ccc(-c2ccc([N+](=O)[O-])cc2)o1 | 6.6
31 | CC(=O)Nc1cccc(NC(=O)c2ccc(Cl)c([N+](=O)[O-])c2)c1 | -1.1
32 | COc1c(Cl)cc(C(=O)Nc2ccc(O)c(-c3nc4cc(C)ccc4o3)c2)cc1Cl | 0.4
33 | COC(=O)C1=C(C)N(c2ccc(F)cc2)C(=O)/C1=C\c1ccc(OCC(=O)NCC2CCCO2)cc1 (stereo unspecified) | 10.9
34 | CN1C(=O)NC(=O)/C(=C/c2cn(Cc3ccccc3)c3ccccc23)C1=O | -5.3
35 | O=C(Cc1ccc(Cl)cc1)NNC(=O)c1cccnc1 | -6.7
36 | CCOc1ccc(-c2nc(Cc3c(F)cccc3Cl)no2)cc1 | 17.2
37 | O=c1/c(=C\c2ccc(OCc3ccc(Cl)cc3Cl)cc2)sc2nc3ccccc3n12 | -20.5
38 | COc1c(Br)cc(Br)cc1/C=N/Nc1nc(N2CCOCC2)nc(N2CCOCC2)n1 | 4.2
39 | Cc1cc(NS(=O)(=O)c2ccc(NC(=O)c3cc(Cl)cc(Cl)c3)cc2)no1 | 11
40 | CCOc1ccc(N2C(=O)CC(SC(=NCCCO)Nc3ccccc3)C2=O)cc1 (stereo unspecified) | -2.6
41 | Cc1c(NC(=O)c2ccc(Br)cc2)cccc1-c1nc2ncccc2o1 | -6
42 | C/C(=N\NC(=O)c1cc(C)[nH]n1)c1ccc(N)cc1 | -10
43 | COc1ccc(C2C3=C(CC(c4ccccc4)CC3=O)Nc3ccccc3N2C(=O)C(C)C)cc1OC (stereo unspecified) | 41.6
44 | Nc1cccc(Nc2nc(OC(C(F)(F)F)C(F)(F)F)nc(OC(C(F)(F)F)C(F)(F)F)n2)c1 | 16.9

Row | Compound | displacement [%]
45 | COc1ccc(CNC(=O)c2nn3c(c2Cl)NC(c2ccc(C)cc2)CC3C(F)(F)F)cc1 (stereo unspecified) | -0.6
46 | Cc1ccc(C(=O)N/C(=C/c2cccnc2)C(=O)N2CCCCCC2)cc1 | 2.1
47 | Cc1cc(Cl)ccc1OC(C)C(=O)NCc1ccco1 (stereo unspecified) | -3.1
48 | COc1ccc(Cl)cc1NC(=O)c1cccc(N(C)C)c1 | -0.1
49 | CN(Cc1ccccc1)c1nc2ccccn2c(=O)c1C=C1SC(=S)N(CCc2ccccc2)C1=O | 0
50 | CNC(=O)C(=O)Nc1ccc(C(C)C)cc1 | 6.9
51 | O=C(O)C(Cc1ccccc1)N1C(=O)/C(=C/C=C/c2ccccc2)SC1=S (stereo unspecified) | 10
52 | CCOc1cc(/C=C2\SC(=S)N(NC(=O)c3ccccc3O)C2=O)ccc1O | 11.8
53 | O=C1NC(c2cccc(I)c2)Oc2ccccc21 (stereo unspecified) | -8.6
54 | CN1CCN(C(=O)c2ccccc2NC(=O)c2cccnc2)CC1 | 1.4
55 | C/C(=N\Nc1nnc2c(n1)[nH]c1ccccc12)c1ccc(C)o1 | 17.4
56 | Cc1ccc(C(c2ccc(C)o2)c2cc(Br)cc(Br)c2O)o1 | -17.4
57 | CCC(CC)C1C(C#N)=C(N)Oc2n[nH]c(-c3ccccc3)c21 (stereo unspecified) | -5.1
58 | N#Cc1sc2nc(C3CC3)cc(-c3ccc(F)cc3)c2c1N | 3.4
59 | CC(=O)c1c(C)nc2ccc(OC(F)(F)F)cc2c1-c1ccccc1 | 8.9
60 | CC(=O)c1ccc(NN=C(C#N)C#N)cc1 | -10
61 | COc1ccc(Cl)cc1NS(=O)(=O)c1c(C)cc(C)cc1C | -4.7
62 | O=C(NCCO)Nc1ccc(Cc2ccc(NC(=O)NCCO)cc2)cc1 | 1
63 | CCOC(=O)c1c(NC(=O)c2ccc(C)c([N+](=O)[O-])c2)sc(C(=O)Nc2ccccc2F)c1C | -1.3
64 | Nc1nnc(SCC(=O)Nc2ccc([N+](=O)[O-])cc2)s1 | -0.6
65 | Cc1[nH]n(-c2ccc(Cl)cc2)c(=O)c1/C=N/NC(=O)c1ccccc1[N+](=O)[O-] | 2.6
66 | CC(=O)c1cccc(NC(=O)c2cc(S(=O)(=O)N3CCOCC3)ccc2Cl)c1 | 4.1
